Experimental data published in the RNAGym collection of RNA variant scans (doi:10.7554/elife.90254).
The source gives no read counts; variants with many changes may rest on few reads.

B1: LINE1-mini (parent)
chain: GGCAGAGCUCAACACAGCGUGGCAAAGUGGCUGUGGCUAGACUGCC

Variants of: B1
Experiment: self-cleavage, relative activity (ratio to wild type); higher = more cleavage; in vitro, sequencing; the parent is a self-cleaving ribozyme

With GGCAGAGCUCCACACAGCUUGGCAAAGUGGCUGUGGGUAGACUGCC as the variant, how does the self-cleavage read?
Its self-cleavage is 0.

With GGCAGAGCUCCACACAGCGUGGCAAAGUGGCUGUGGCUAGAGUGAC as the variant, how does the self-cleavage read?
The self-cleavage was 0.01.

With GGCAGAGCUCCACACAUGGUGGCAAAGUGGCUGUGGGUAGACUGCC as the variant, how does the self-cleavage read?
Its self-cleavage is 0.02.

Which self-cleavage does the source give for GGCAGAGCUCCAUACAGCGUGGCAAAGUGGCUGUGGCUAGACUCCC here?
The self-cleavage was 0.06.

For GGCAGAGCUCCACACAGCGUUGCAAAGUGGUUGUGGCUAGACUGCC, which self-cleavage is on record?
The self-cleavage was 0.01.

Which self-cleavage does the source give for GGCAGAGCUCCACACAGCAUGGCAAAGUGGCUGUGGCCAGUCUGCC here?
The self-cleavage was 0.02.

With GGCAGAGCUCCACACAGUGUGGCAGAGUAGCUGUGGCUAGACUGGC as the variant, how does the self-cleavage read?
The self-cleavage was 0.

For GGCAGAGCUCCACACAGGGUGGCAAAGUGGCUGUGGCUAGACUGAC, which self-cleavage is on record?
Its self-cleavage is 0.02.

With GGCAGAGCUCCACAGAGCGUGGCAAAGUGGCUGUGACUAGACUUCC as the variant, how does the self-cleavage read?
Its self-cleavage is 0.01.

For GGCAGAGCUCCACAAAGCGUGGCAAAGAGGCUGGGGCUAGACUGCC, which self-cleavage is on record?
Its self-cleavage is 0.01.

Which self-cleavage does the source give for GGCAGAGCUCCACACAGCAUGGCAAAGUGGCUGUGGCUAGCCUGCC here?
Its self-cleavage is 0.04.

Which self-cleavage does the source give for GGCAGAGCUCCACACAGCGUGGCAAAGUGGCUGUGGAUCGACUGCC here?
The self-cleavage was 0.

For GGCAGAGCUCCAUACAGCGUGGCAAAGUGGCUGUCGCUAGACUACC, which self-cleavage is on record?
Its self-cleavage is 0.

For GGCAGAGCUCCACAAAGCGUGGCAAAGUGGAUGUGGCUAGACUGCC, which self-cleavage is on record?
The self-cleavage was 0.03.

For GGCAGAGCUCCACACAGCGUGGCAAAGUGGGUGUGGCUAGACUGAC, which self-cleavage is on record?
Its self-cleavage is 0.01.

With GGCAGAGCUCCACACAGAGUGGCCAAGUGGCUGUGGCUAGACUGCC as the variant, how does the self-cleavage read?
Its self-cleavage is 0.31.

With GGCAGAGCUCCACACAGUGUGGCAAAGUGGCUGUGGCGAGACUACC as the variant, how does the self-cleavage read?
The self-cleavage was 0.

Which self-cleavage does the source give for GGCAGAGCUCCACACAGCGUGGCAAAGUGGUUGUGGCUAAACAGCC here?
The self-cleavage was 0.02.

For GGCAGAGCUCCACACAGCUUGGCAAAGUGGCGGCGGAUAGACUGCC, which self-cleavage is on record?
Its self-cleavage is 0.

For GGCAGAGCUCCACACAGCGUCUCAAAGUGGCUAUGGCUAUACUGCC, which self-cleavage is on record?
Its self-cleavage is 0.01.

Which self-cleavage does the source give for GGCAGAGCUCCACACAGGGUGGGAAAGUGGCUGUGGCUAGUCGGCC here?
Its self-cleavage is 0.

Which self-cleavage does the source give for GGCAGAGCUCCACACAGAGUGGCAAAGUGGUUGUGGCUAGACAGCC here?
Its self-cleavage is 0.01.

With GGCAGAGCUCCACACAGAGUGGCAAAGUGGUUGUGGCUAGACGGCC as the variant, how does the self-cleavage read?
The self-cleavage was 0.

With GGCAGAGCUCCACAUAGCGUGGCAAAGUGGCUGUUGCUAGACUGCC as the variant, how does the self-cleavage read?
Its self-cleavage is 0.03.

Which self-cleavage does the source give for GGCAGAGCUCCACACAGCGUGGCAAAGUGGCUGUGGAUAGCCUGCC here?
Its self-cleavage is 0.01.

With GGCAGAGCUCCACACAGCGUGGCAAAGUGGGUGUGGCUAGCGUGCC as the variant, how does the self-cleavage read?
The self-cleavage was 0.

For GGCAGAGCUCCACACAGGGUGGCGAAGUGGCUGCGCCUAGACUGCC, which self-cleavage is on record?
Its self-cleavage is 0.01.

For GGCAGAGCUCCAUACAGCGUGGCAAAGUGGCUGUGGCUACUCUGCC, which self-cleavage is on record?
The self-cleavage was 0.04.

With GGCAGAGCUCCACACAUCGUGUCAAAGUGGCUGUGGCUAGACAGCC as the variant, how does the self-cleavage read?
Its self-cleavage is 0.01.

With GGCAGAGCUCCACAUUGCGUGGCUAAGUGGCUGUAGCUAGACUGCC as the variant, how does the self-cleavage read?
Its self-cleavage is 0.01.

With GGCAGAGCUCCACACAGCGUGGGAAAGUGGCUGUGGCUUGACUGCC as the variant, how does the self-cleavage read?
The self-cleavage was 0.02.

With GGCAGAGCUCCACACAUUGUGUCAAAGUGUCUAUGGCUAGACUGCC as the variant, how does the self-cleavage read?
Its self-cleavage is 0.02.

Which self-cleavage does the source give for GGCAGAGCUCCACACAGCGUCGCAAAGUGGAUGUGGCUAGACUGCC here?
Its self-cleavage is 0.02.

Which self-cleavage does the source give for GGCAGAGCUCCACACAGCUUGGCAAACUGGCUGUGGCUAGACUGCC here?
Its self-cleavage is 0.02.

For GGCAGAGCUCCACACAGAUUGGCAAAGUGUCUGUGGCGACACUGCC, which self-cleavage is on record?
The self-cleavage was 0.

Which self-cleavage does the source give for GGCAGAGCUCCACACAGCGUGGCAAAGUGGAUGUAGCUAGGCAGCC here?
The self-cleavage was 0.01.

With GGCAGAGCUCCACACAACGUGGCAAAGUGGUUGUGGCUAGACUGCC as the variant, how does the self-cleavage read?
Its self-cleavage is 0.07.

With GGCAGAGCUCCACACAACGUUUCAAAGUGGCUGUGGCUAGACCGCC as the variant, how does the self-cleavage read?
Its self-cleavage is 0.

For GGCAGAGCUCCACACACCGUGGCAAAGGGGCUGUGGCUAGACUGCC, which self-cleavage is on record?
The self-cleavage was 0.

Which self-cleavage does the source give for GGCAGAGCUCCACACAGCCUGGCAAAGUAGCUGUGGCUAGACUGCC here?
Its self-cleavage is 0.01.

With GGCAGAGCUCCACACAUCGGGGCAAAGUGGCUGUGGAUAGACUGCC as the variant, how does the self-cleavage read?
Its self-cleavage is 0.01.

Which self-cleavage does the source give for GGCAGAGCUCCACACAUCGUGUCAAAGUGGCUUUGGCUAGUAUGCC here?
The self-cleavage was 0.02.

Which self-cleavage does the source give for GGCAGAGCUCCACACAGUGUGGCGAAGUGGCUGUCGCUAGACUGCC here?
The self-cleavage was 0.

With GGCAGAGCUCCACACAGACUGGCAAAGUGGGUGUGGCUAGACUGCC as the variant, how does the self-cleavage read?
The self-cleavage was 0.

Which self-cleavage does the source give for GGCAGAGCUCCACACAACGUGGCAAAGUGGCUUUGGCUAGACUGCC here?
Its self-cleavage is 0.01.

With GGCAGAGCUCCACACAGCGUGGCAAAGUGGUUGUGGCUUGACAGCC as the variant, how does the self-cleavage read?
Its self-cleavage is 0.03.

For GGCAGAGCUCCACACAGCUUGCCAGAGUGGCUGUGGCUAGACUGCG, which self-cleavage is on record?
The self-cleavage was 0.07.

Which self-cleavage does the source give for GGCAGAGCUCCACACAGGGUGGCAAACAGGCUGUGGAUCCACUGCC here?
Its self-cleavage is 0.

Which self-cleavage does the source give for GGCAGAGCUCCACACAGCGUGGGAAAGUGGCUGUGGCUAGAGUGCC here?
Its self-cleavage is 0.

For GGCAGAGCUCCACACAUCAUGGCAAAGUGGCUGUGGCUAUACUGCC, which self-cleavage is on record?
Its self-cleavage is 0.

Which self-cleavage does the source give for GGCAGAGCUCCACACACCUUGGCAAAGUGGCUGUGGCUAGACUGCC here?
The self-cleavage was 0.01.

Which self-cleavage does the source give for GGCAGAGCUCCACAGAGCGUGGCAAAGUGGCGGUGGCUAGACUGCC here?
The self-cleavage was 0.

For GGCAGAGCUCCACACAACGUGCUCACGUGGCUGUGGGUAGACUGCC, which self-cleavage is on record?
Its self-cleavage is 0.02.

For GGCAGAGCUCCACACAGCCUAGCAAAGUGGCUGUGGGUAGGCUGCC, which self-cleavage is on record?
Its self-cleavage is 0.

Which self-cleavage does the source give for GGCAGAGCUCCAUACAGCGGGGAAAAGUGGCUGUGGCUAGACUGCC here?
Its self-cleavage is 0.01.

Which self-cleavage does the source give for GGCAGAGCUCCACACAACGUGGCAAAGUGGCUGUGGCGAGGCUGCU here?
The self-cleavage was 0.01.
